Measurements from a collection of fitness landscapes (doi:10.1016/j.celrep.2020.107928).
In all, about 81,000 sequences were measured (“one-hybrid fitness for binding NBS DNA”: median about -0.1, highest 2% from about 0.36 on). The list shows a part of the results.

B1: Caulobacter ParB omega fusion; a variant is named by its letters at X, in order, B8GW30 (parent)
chain: MESVVVGEPGMSEGRRGLGRGLSALLGEVDAAPAQAPGEQLGGSREAPIEILQRNPDQPRRTFREEDLEDLSNSIREKGVLQPILVRPSPDTAGEYQIVAGERAWRAAQRAGLKTVPIMVRELDDLAVLEIGIIENVQRADLNVLEEALSYKVLMEKFERTQENIAQTIGKSXSHVANXMRLLXLPDEVQSYLVSGELTAXHARAIAAAADPVALAKQIIEGGLSVRETEALARKAPNLSAGKSKGGRPPRVKDTDTQALESDLSSVLGLDVSIDHRGSTGTLTITYATLEQLDDLCNRLTRGI

Variants of: B1
Experiment: one-hybrid fitness for binding NBS DNA (the Noc-binding site; scaled: cognate 1, non-cognate 0); higher = stronger binding
Conditions: with NBS DNA site
How it was run: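 Bacterial one-hybrid selection in E. coli USO rpoZ- hisB- pyrF- with a HIS3 reporter carrying the site 19 bp from the promoter, screening Caulobacter ParB libraries with four specificity codons randomised (NNS). Cells grew 48 hours at 37°C on M9-minus-histidine plus 0.1 mM IPTG and 5 mM 3-AT. Plasmids before and after selection were Illumina-sequenced, three replicate libraries pooled, and variants under 10 reads dropped. Fitness is the log change in variant-to-wild-type read ratio, rescaled to cognate 1, non-cognate 0.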

Row | Variant | one-hybrid fitness for binding NBS DNA
1 | SDHC | ≤ 0.2
2 | CRFC | ≤ 0.2
3 | RVNP | ≤ 0.2
4 | AWCV | ≤ 0.2
5 | RAQY | ≤ 0.2
6 | HQNY | ≤ 0.2
7 | ERDG | ≤ 0.2
8 | SMCY | ≤ 0.2
9 | TRTQ | ≤ 0.2
10 | RIAN | ≤ 0.2
11 | LMTG | ≤ 0.2
12 | SFNW | ≤ 0.2
13 | GPCL | ≤ 0.2
14 | EMHS | ≤ 0.2
15 | SCDR | ≤ 0.2
16 | DNHR | ≤ 0.2
17 | GMRM | ≤ 0.2
18 | NKTS | ≤ 0.2
19 | QARK | 0.37
20 | HNNL | ≤ 0.2
21 | TYKV | ≤ 0.2

Row | Variant | one-hybrid fitness for binding NBS DNA
22 | RCVE | ≤ 0.2
23 | DRSI | ≤ 0.2
24 | VNCS | ≤ 0.2
25 | SHGS | ≤ 0.2
26 | RLVP | ≤ 0.2
27 | KTRH | ≤ 0.2
28 | LAIV | ≤ 0.2
29 | SYMR | ≤ 0.2
30 | TRTG | ≤ 0.2
31 | HWQS | ≤ 0.2
32 | CSPV | ≤ 0.2
33 | CPQV | ≤ 0.2
34 | GFRA | ≤ 0.2
35 | WCGY | ≤ 0.2
36 | SITL | ≤ 0.2
37 | IPWE | ≤ 0.2
38 | HKWR | ≤ 0.2
39 | RIEV | ≤ 0.2
40 | QMPS | 0.235
41 | LWYP | ≤ 0.2
42 | QFAM | ≤ 0.2

Row | Variant | one-hybrid fitness for binding NBS DNA
43 | QYIV | ≤ 0.2
44 | TQTT | ≤ 0.2
45 | PLCV | ≤ 0.2
46 | IQGG | ≤ 0.2
47 | YYIG | ≤ 0.2
48 | RAQH | ≤ 0.2
49 | PQEI | ≤ 0.2
50 | ELSP | ≤ 0.2
51 | TLIT | ≤ 0.2
52 | LIIS | ≤ 0.2
53 | NKSI | ≤ 0.2
54 | NPID | ≤ 0.2
55 | THHF | ≤ 0.2
56 | VFNR | ≤ 0.2
57 | HQNK | ≤ 0.2
58 | QVAF | ≤ 0.2
59 | ASHR | ≤ 0.2
60 | HTTE | ≤ 0.2
61 | MFAG | ≤ 0.2
62 | IALI | ≤ 0.2
63 | EAAS | ≤ 0.2

Row | Variant | one-hybrid fitness for binding NBS DNA
64 | GREH | ≤ 0.2
65 | DCYN | ≤ 0.2
66 | VDDQ | ≤ 0.2
67 | NSMQ | ≤ 0.2
68 | LYYY | ≤ 0.2
69 | PFYI | ≤ 0.2
70 | LWHM | ≤ 0.2
71 | TQYN | ≤ 0.2
72 | LATE | ≤ 0.2
73 | ANML | ≤ 0.2
74 | QDKL | ≤ 0.2
75 | FPCS | ≤ 0.2
76 | QTHV | 0.288
77 | APDT | ≤ 0.2
78 | WRGH | ≤ 0.2
79 | RQHQ | ≤ 0.2
80 | QNNG | ≤ 0.2
81 | RVET | ≤ 0.2
82 | TLDM | ≤ 0.2
83 | FAAP | ≤ 0.2
84 | DPEW | ≤ 0.2
